# Measured values reported in the supplement of paper PMC8728848.
# Some of the results follow.
# Legend:
# Experiment in all cases: glycan array binding signal (z-score within array); higher = stronger binding
# Settings in all cases: glycan notation: IUPAC condensed, linker removed
# [1] = molecular target: Gal(b1-4)GlcNAc(b1-2)[Gal(b1-4)GlcNAc(b1-6)]Man(a1-6)[GlcNAc(b1-4)][Gal(b1-4)GlcNAc(b1-2)Man(a1-3)]Man(b1-4)GlcNAc(b1-4)GlcNAc
# Procedure, shortened: (§1)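 From the Consortium for Functional Glycomics database, 3228 arrays were curated, keeping only those whose protein sequence was available. Binding is given as a within-array Z-score averaged across arrays sharing a protein sequence and across linkers. Negative Z-scores can be read as non-binding.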
# [2] = molecular target: Gal(b1-4)GlcNAc(b1-2)[Gal(b1-4)GlcNAc(b1-6)]Man(a1-6)[GlcNAc(b1-4)][Gal(b1-4)GlcNAc(b1-2)[Gal(b1-4)GlcNAc(b1-4)]Man(a1-3)]Man(b1-4)GlcNAc(b1-4)[Fuc(a1-6)]GlcNAc
# Procedure, shortened: as §1
# [3] = molecular target: Gal(b1-4)GlcNAc(b1-3)Gal(b1-3)GalNAc
# Procedure, shortened: as §1
# [4] = molecular target: Gal(b1-4)GlcNAc(b1-3)Gal(b1-3)GlcNAc
# Procedure, shortened: as §1
# [5] = molecular target: Gal(b1-4)GlcNAc(b1-3)Gal(b1-4)Glc
# Procedure, shortened: as §1
# [6] = molecular target: Gal(b1-4)GlcNAc(b1-3)Gal(b1-4)GlcNAc
# Procedure, shortened: as §1
# [7] = molecular target: Gal(b1-4)GlcNAc(b1-3)Gal(b1-4)GlcNAc(b1-2)Man(a1-3)[Gal(b1-4)GlcNAc(b1-3)Gal(b1-4)GlcNAc(b1-2)Man(a1-6)]Man(b1-4)GlcNAc(b1-4)GlcNAc
# Procedure, shortened: as §1
# [8] = molecular target: Gal(b1-4)GlcNAc(b1-3)Gal(b1-4)GlcNAc(b1-2)Man(a1-3)[Gal(b1-4)GlcNAc(b1-3)Gal(b1-4)GlcNAc(b1-2)Man(a1-6)]Man(b1-4)GlcNAc(b1-4)[Fuc(a1-6)]GlcNAc
# Procedure, shortened: as §1
# [9] = molecular target: Gal(b1-4)GlcNAc(b1-3)Gal(b1-4)GlcNAc(b1-2)[Gal(b1-4)GlcNAc(b1-3)Gal(b1-4)GlcNAc(b1-6)]Man(a1-6)[Gal(b1-4)GlcNAc(b1-3)Gal(b1-4)GlcNAc(b1-2)Man(a1-3)]Man(b1-4)GlcNAc(b1-4)GlcNAc
# Procedure, shortened: as §1
# [10] = molecular target: Gal(b1-4)GlcNAc(b1-3)Gal(b1-4)GlcNAc(b1-2)[Gal(b1-4)GlcNAc(b1-3)Gal(b1-4)GlcNAc(b1-6)]Man(a1-6)[Gal(b1-4)GlcNAc(b1-3)Gal(b1-4)GlcNAc(b1-2)Man(a1-3)]Man(b1-4)GlcNAc(b1-4)[Fuc(a1-6)]GlcNAc
# Procedure, shortened: as §1
# [11] = molecular target: Gal(b1-4)GlcNAc(b1-3)Gal(b1-4)GlcNAc(b1-3)Gal(b1-4)GlcNAc
# Procedure, shortened: as §1
# [12] = molecular target: Gal(b1-4)GlcNAc(b1-3)Gal(b1-4)GlcNAc(b1-3)Gal(b1-4)GlcNAc(b1-2)Man(a1-3)[Gal(b1-4)GlcNAc(b1-3)Gal(b1-4)GlcNAc(b1-3)Gal(b1-4)GlcNAc(b1-2)Man(a1-6)]Man(b1-4)GlcNAc(b1-4)GlcNAc
# Procedure, shortened: as §1
# [13] = molecular target: Gal(b1-4)GlcNAc(b1-3)Gal(b1-4)GlcNAc(b1-3)Gal(b1-4)GlcNAc(b1-2)Man(a1-3)[Gal(b1-4)GlcNAc(b1-3)Gal(b1-4)GlcNAc(b1-3)Gal(b1-4)GlcNAc(b1-2)Man(a1-6)]Man(b1-4)GlcNAc(b1-4)[Fuc(a1-6)]GlcNAc
# Procedure, shortened: as §1
# [14] = molecular target: Gal(b1-4)GlcNAc(b1-3)Gal(b1-4)GlcNAc(b1-3)Gal(b1-4)GlcNAc(b1-2)[Gal(b1-4)GlcNAc(b1-3)Gal(b1-4)GlcNAc(b1-3)Gal(b1-4)GlcNAc(b1-6)]Man(a1-6)[Gal(b1-4)GlcNAc(b1-3)Gal(b1-4)GlcNAc(b1-3)Gal(b1-4)GlcNAc(b1-2)Man(a1-3)]Man(b1-4)GlcNAc(b1-4)[Fuc(a1-6)]GlcNAc
# Procedure, shortened: as §1
# [15] = molecular target: Gal(b1-4)GlcNAc(b1-3)Gal(b1-4)GlcNAc(b1-3)Gal(b1-4)GlcNAc(b1-3)Gal(b1-4)GlcNAc(b1-2)Man(a1-3)[Gal(b1-4)GlcNAc(b1-3)Gal(b1-4)GlcNAc(b1-3)Gal(b1-4)GlcNAc(b1-3)Gal(b1-4)GlcNAc(b1-2)Man(a1-6)]Man(b1-4)GlcNAc(b1-4)GlcNAc
# Procedure, shortened: as §1
# [16] = molecular target: Gal(b1-4)GlcNAc(b1-3)Gal(b1-4)GlcNAc(b1-3)Gal(b1-4)GlcNAc(b1-3)Gal(b1-4)GlcNAc(b1-2)Man(a1-3)[Gal(b1-4)GlcNAc(b1-3)Gal(b1-4)GlcNAc(b1-3)Gal(b1-4)GlcNAc(b1-3)Gal(b1-4)GlcNAc(b1-2)Man(a1-6)]Man(b1-4)GlcNAc(b1-4)[Fuc(a1-6)]GlcNAc
# Procedure, shortened: as §1
# [17] = molecular target: Gal(b1-4)GlcNAc(b1-3)Gal(b1-4)GlcNAc(b1-3)Gal(b1-4)GlcNAc(b1-3)Gal(b1-4)GlcNAc(b1-2)[Gal(b1-4)GlcNAc(b1-3)Gal(b1-4)GlcNAc(b1-3)Gal(b1-4)GlcNAc(b1-3)Gal(b1-4)GlcNAc(b1-6)]Man(a1-6)[Gal(b1-4)GlcNAc(b1-3)Gal(b1-4)GlcNAc(b1-3)Gal(b1-4)GlcNAc(b1-3)Gal(b1-4)GlcNAc(b1-2)Man(a1-3)]Man(b1-4)GlcNAc(b1-4)[Fuc(a1-6)]GlcNAc
# Procedure, shortened: as §1
# [18] = molecular target: Gal(b1-4)GlcNAc(b1-3)Gal(b1-4)GlcNAc(b1-3)Gal(b1-4)GlcNAc(b1-3)Gal(b1-4)GlcNAc(b1-3)Gal(b1-4)GlcNAc(b1-2)Man(a1-3)[Gal(b1-4)GlcNAc(b1-3)Gal(b1-4)GlcNAc(b1-3)Gal(b1-4)GlcNAc(b1-3)Gal(b1-4)GlcNAc(b1-3)Gal(b1-4)GlcNAc(b1-2)Man(a1-6)]Man(b1-4)GlcNAc(b1-4)GlcNAc
# Procedure, shortened: as §1
# [19] = molecular target: Gal(b1-4)GlcNAc(b1-3)Gal(b1-4)GlcNAc(b1-3)Gal(b1-4)GlcNAc(b1-3)Gal(b1-4)GlcNAc(b1-3)Gal(b1-4)GlcNAc(b1-2)Man(a1-3)[Gal(b1-4)GlcNAc(b1-3)Gal(b1-4)GlcNAc(b1-3)Gal(b1-4)GlcNAc(b1-3)Gal(b1-4)GlcNAc(b1-3)Gal(b1-4)GlcNAc(b1-2)Man(a1-6)]Man(b1-4)GlcNAc(b1-4)[Fuc(a1-6)]GlcNAc
# Procedure, shortened: as §1
# [20] = molecular target: Gal(b1-4)GlcNAc(b1-3)Gal(b1-4)GlcNAc(b1-3)Gal(b1-4)GlcNAc(b1-3)Gal(b1-4)GlcNAc(b1-3)Gal(b1-4)GlcNAc(b1-2)[Gal(b1-4)GlcNAc(b1-3)Gal(b1-4)GlcNAc(b1-3)Gal(b1-4)GlcNAc(b1-3)Gal(b1-4)GlcNAc(b1-3)Gal(b1-4)GlcNAc(b1-6)]Man(a1-6)[Gal(b1-4)GlcNAc(b1-3)Gal(b1-4)GlcNAc(b1-3)Gal(b1-4)GlcNAc(b1-3)Gal(b1-4)GlcNAc(b1-3)Gal(b1-4)GlcNAc(b1-2)Man(a1-3)]Man(b1-4)GlcNAc(b1-4)[Fuc(a1-6)]GlcNAc
# Procedure, shortened: as §1
# [21] = molecular target: Gal(b1-4)GlcNAc(b1-3)Gal(b1-4)GlcNAc(b1-3)Gal(b1-4)GlcNAc(b1-3)Gal(b1-4)GlcNAc(b1-3)Gal(b1-4)GlcNAc(b1-3)Gal(b1-4)GlcNAc(b1-2)Man(a1-3)[Gal(b1-4)GlcNAc(b1-3)Gal(b1-4)GlcNAc(b1-3)Gal(b1-4)GlcNAc(b1-3)Gal(b1-4)GlcNAc(b1-3)Gal(b1-4)GlcNAc(b1-3)Gal(b1-4)GlcNAc(b1-2)Man(a1-6)]Man(b1-4)GlcNAc(b1-4)GlcNAc
# Procedure, shortened: as §1
# [22] = molecular target: Gal(b1-4)GlcNAc(b1-3)Gal(b1-4)GlcNAc(b1-3)GalNAc
# Procedure, shortened: as §1
# [23] = molecular target: Gal(b1-4)GlcNAc(b1-3)Gal(b1-4)GlcNAc(b1-3)[Gal(b1-4)GlcNAc(b1-3)Gal(b1-4)GlcNAc(b1-6)]GalNAc
# Procedure, shortened: as §1
binder,measurement,setting,value
FimA-N3 (Actinomyces oris) (protein) MHHHHHHSSGVDLGTENLYFQSNAGLQGAQFQLYKAKNAYANTCSNEKEGAPIAINGQTTLTTDAQGAIDIKGLFISDSIDGADRDNQVNAMERCYVLVETKAPAGYVLPAGNGAATPVKVKAGEETTDN,glycan array binding signal (z-score),[1],-0.506
same,glycan array binding signal (z-score),[2],-0.61
same,glycan array binding signal (z-score),[3],0.174
same,glycan array binding signal (z-score),[4],-0.785
same,glycan array binding signal (z-score),[5],-0.274
same,glycan array binding signal (z-score),[6],-0.175
same,glycan array binding signal (z-score),[7],-0.151
same,glycan array binding signal (z-score),[8],-0.021
same,glycan array binding signal (z-score),[9],0.358
same,glycan array binding signal (z-score),[10],0.216
same,glycan array binding signal (z-score),[11],-0.32
same,glycan array binding signal (z-score),[12],0.226
same,glycan array binding signal (z-score),[13],-0.102
same,glycan array binding signal (z-score),[14],1.19
same,glycan array binding signal (z-score),[15],0.744
same,glycan array binding signal (z-score),[16],2.57
same,glycan array binding signal (z-score),[17],0.782
same,glycan array binding signal (z-score),[18],0.111
same,glycan array binding signal (z-score),[19],-0.121
same,glycan array binding signal (z-score),[20],4.26
same,glycan array binding signal (z-score),[21],-0.149
same,glycan array binding signal (z-score),[22],-0.532
same,glycan array binding signal (z-score),[23],-0.265
